Out of some 310,000 compounds screened, about 2,200 (0.71%) showed an effect of 50% or more. Effects have a minus sign here. This is one part of the list.
molecular target: human ether-à-go-go-related gene (hERG) potassium channel (human, UniProt Q12809); experiment: primary screen, population patch clamp on CHO cells stably expressing hERG
Sequence (Q12809 whole entry, looked up): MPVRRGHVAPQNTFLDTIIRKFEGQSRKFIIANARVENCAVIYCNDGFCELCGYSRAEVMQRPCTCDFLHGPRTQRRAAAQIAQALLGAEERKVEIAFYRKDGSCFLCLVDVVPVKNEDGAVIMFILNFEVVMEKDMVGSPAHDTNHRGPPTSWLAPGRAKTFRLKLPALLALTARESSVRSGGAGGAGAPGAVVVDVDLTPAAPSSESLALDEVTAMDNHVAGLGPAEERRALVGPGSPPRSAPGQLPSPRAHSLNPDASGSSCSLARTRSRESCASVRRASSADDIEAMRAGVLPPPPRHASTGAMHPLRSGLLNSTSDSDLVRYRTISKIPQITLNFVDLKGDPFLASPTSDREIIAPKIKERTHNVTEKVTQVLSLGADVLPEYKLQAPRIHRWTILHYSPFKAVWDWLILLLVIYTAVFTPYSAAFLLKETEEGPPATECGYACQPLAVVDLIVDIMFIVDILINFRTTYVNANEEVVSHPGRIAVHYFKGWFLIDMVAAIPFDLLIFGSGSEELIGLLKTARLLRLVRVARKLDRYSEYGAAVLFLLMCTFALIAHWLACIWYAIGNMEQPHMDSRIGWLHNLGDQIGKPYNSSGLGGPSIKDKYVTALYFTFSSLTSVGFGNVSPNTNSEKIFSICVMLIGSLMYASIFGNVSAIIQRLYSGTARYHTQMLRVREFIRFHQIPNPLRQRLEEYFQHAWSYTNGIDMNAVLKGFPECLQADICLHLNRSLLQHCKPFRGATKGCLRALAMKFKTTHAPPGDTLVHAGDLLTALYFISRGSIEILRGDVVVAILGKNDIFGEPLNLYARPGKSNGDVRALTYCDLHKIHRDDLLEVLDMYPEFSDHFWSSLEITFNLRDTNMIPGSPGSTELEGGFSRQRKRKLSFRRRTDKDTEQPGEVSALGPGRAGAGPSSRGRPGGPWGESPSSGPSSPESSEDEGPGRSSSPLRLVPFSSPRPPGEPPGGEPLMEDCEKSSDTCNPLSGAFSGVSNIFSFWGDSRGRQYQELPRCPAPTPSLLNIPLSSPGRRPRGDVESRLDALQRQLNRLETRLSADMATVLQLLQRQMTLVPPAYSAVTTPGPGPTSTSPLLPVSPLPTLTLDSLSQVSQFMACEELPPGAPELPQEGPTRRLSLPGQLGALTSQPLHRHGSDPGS

Row | Structure (SMILES) | hERG current change (%, negative = inhibition) at 1uM
1 | O=C(COc1ccc(S(=O)(=O)NC2CCCCC2)cc1Cl)Nc1ccc2c(c1)OCO2 | 9.16%
2 | Cc1cccc(C)c1OCc1cc(C(=O)N2CCC[C@H]2C(N)=O)no1 | 13.1%
3 | O=C(NCCCN1CCOCC1)c1cc(C(=O)C2CCCCC2)c[nH]1 | 12.7%
4 | CCOCCCNC(=O)c1c[nH]c2c(CC)cccc2c1=O | 20.9%
5 | CCCc1nnc(NC(=O)c2c(O)c3cccc4c3n(c2=O)CC4)s1 | 15.5%
6 | O=C(OCc1nnc(-c2ccccc2)o1)C1=COCCO1 | 3.92%
7 | N#C/C(=C\c1ccc([N+](=O)[O-])cc1)c1ccccn1 | 6.02%
8 | Cc1cc(C)n2c(SCC(=O)N(C)C3CCS(=O)(=O)C3)nnc2n1 (stereo not shown) | 5.59%
9 | COc1ccc(OC)c(NC(=O)CSc2nnc3ccc(-c4ccccn4)nn23)c1 | 12.5%
10 | COc1ccc(OC)c(NC(=O)c2cccc(Cn3cc(Br)c([N+](=O)[O-])n3)c2)c1 | -1.68%
11 | CC(C)NC(=O)c1nc2ccccc2s1 | 3.72%
12 | COc1ccc(OCc2nn3c(Cn4cnc5ccccc54)nnc3s2)cc1 | -2.93%
13 | CCc1c(C)sc(NC(=S)NC(C)C2CCCO2)c1C(=O)OC (stereo not shown) | 3.79%
14 | O=C(/C=C/c1ccc(Br)cc1)c1ccc(NC(=O)c2ccco2)cc1 | 10.4%
15 | Cc1ccccc1NC(=O)c1cccc(C(F)(F)F)c1 | 2.16%
16 | Cc1ccc2nc3c(cc2c1)c(NC(=O)C(C)(C)C)nn3CC(C)C | 7.75%
17 | NC(=O)N/N=C/C=C/c1ccccc1 | 14.5%
18 | O=c1cc(CSc2nnnn2-c2ccccc2)nc2nc[nH]n12 | 8.55%
19 | CC(=O)Nc1ccc(NC(=O)C2CC(=O)N(c3ccccc3Cl)C2)cc1 (stereo not shown) | 9.11%
20 | CC(=O)c1ccc(NC(=O)c2cnn3ccccc23)cc1 | 11.1%
21 | O=C(COC(=O)c1ccc(Cl)c(S(=O)(=O)N2CCCCC2)c1)NCC1CCCO1 (stereo not shown) | 1.02%
22 | CCCCOP(=O)(c1ccc(N(C)C)cc1)C(O)c1ccc(OC)c(OC)c1 (stereo not shown) | 8.62%
23 | Cc1cc(NC(=O)CCC(=O)N(c2ccc(C)c(F)c2)C(C(=O)NC2CCCC2)c2ccco2)no1 (stereo not shown) | 7.44%

Row | Structure (SMILES) | hERG current change (%, negative = inhibition) at 1uM
24 | COc1ccc(-c2cc(-c3ccccc3)nc(SCC(=O)Nc3ncc(C)s3)c2C#N)cc1 | 5.39%
25 | CC(C)n1c(SC2CCOC2=O)nc2ccccc21 (stereo not shown) | 3.49%
26 | Fc1cccc(Cl)c1CNCc1cccnc1 | 11.1%
27 | COc1ccc(C(C)=O)cc1CN1C(=O)NC2(CCCCCCC2)C1=O | 19.8%
28 | O=C(Cn1c(=O)oc2ccccc21)NCCc1ccccc1Cl | 12.6%
29 | O=S(CC(O)COCc1ccc(Cl)cc1)c1ccccn1 (stereo not shown) | 18.6%
30 | CC(=O)Nc1ccc(NC(=O)C(C)OC(=O)CNS(=O)(=O)c2cccc(Cl)c2)cc1 (stereo not shown) | 24.9%
31 | CC(C)NC(=O)c1ccc(Sc2ccccc2)c([N+](=O)[O-])c1 | 7.04%
32 | COc1cccc(C2NC(CC(C)C)(C(=O)O)C3C(=O)N(Cc4ccccc4)C(=O)C23)c1O (stereo not shown) | -0.961%
33 | CCCNC(=O)c1oc2ccc3c(c2c1C)C(=O)CC(C)(C)O3 | 13.9%
34 | O=C(Nc1cccc(O)c1)c1ccc(NC(=O)C2CCCO2)cc1 (stereo not shown) | 15.4%
35 | CC(NC(=O)C1CCN(C(=O)[C@@H]2Cc3ccccc3CN2C(=O)OC(C)(C)C)CC1)c1ccccc1 (stereo partly shown) | 9.81%
36 | Cn1cc(Br)cc2nc(C(F)(F)F)nc1-2 | 11.2%
37 | Cc1cccc(C)c1NC(=O)C(NC(=O)CN1C(=O)c2ccccc2C1=O)c1ccccc1 (stereo not shown) | 9.56%
38 | N#Cc1c(N)nc2c(c1-c1ccccc1)CCCC2 | 5.7%
39 | COC(=O)c1ccc(CO/N=C/c2ccc(OC)cc2OC)cc1 | 11.5%
40 | CC(Sc1nc2c(c(=O)[nH]1)CCCC2)C(=O)Nc1ccc(Br)cn1 (stereo not shown) | 4.65%
41 | CCN1CCN(Cc2cc(=O)oc3ccc(Cl)cc23)CC1 | 8.55%
42 | CCOc1cc(C(=O)OCC(=O)Nc2cccc(C)c2)ccc1OCC(=O)N1CCOCC1 | 16.4%
43 | CC(c1ccccc1)C1OCC(C[N+]2(C)CCCCC2)O1.[I-] (stereo not shown) | 15.1%
44 | CCOC(=O)N1CCN(C(=O)c2ccc3nc(-c4ccccc4)c(-c4ccccc4)nc3c2)CC1 | 6.99%
45 | CCOC(=O)/C=c1\s/c(=C\c2ccc(C#N)cc2)c(=O)n1CC(=O)NCc1ccco1 | -1.93%
46 | O=C(COC(=O)c1cc(=O)[nH]c2ccccc12)c1ccc(Br)cc1 | 8.04%

Row | Structure (SMILES) | hERG current change (%, negative = inhibition) at 1uM
47 | COc1cccc(C(C(=O)NCc2ccccc2)N(C(=O)c2csnn2)C2CC2)c1 (stereo not shown) | 8.82%
48 | Cn1nc(C(=O)N2CCc3ccccc3C2)c2ccccc2c1=O | 8.45%
49 | O=[N+]([O-])c1cc(CS(=O)(=O)Oc2ccc(Cl)cc2)c(O)c([N+](=O)[O-])c1 | 13.5%
50 | COC(=O)C1C(=O)NCC1c1ccccc1 (stereo not shown) | 18.8%
51 | CC(C)COP(=O)(OCC(C)C)C(O)c1ccccc1F (stereo not shown) | 5.11%
52 | Cc1noc(C)c1CSc1ncnc2sc3c(c12)CCCCC3 | 9.86%
53 | O=C(CSc1nnnn1-c1ccc(C(=O)O)cc1)NC1CCCCC1 | -6.2%
54 | O=C1CC(c2ccc(F)cc2)CC(O)=C1C1NCCc2ccccc21 (stereo not shown) | 16.3%
55 | COc1ccccc1-c1ccc(SCc2ccccc2F)nn1 | 6.4%
56 | Cc1ccc(C2N(c3cc(C)on3)C(=O)C3CCCN32)cc1 (stereo not shown) | 14.9%
57 | Cc1cccc2nc3ccccc3cc12 | 12.6%
58 | O=C(Cc1ccc(F)cc1)Nc1ccc2[nH]ncc2c1 | 13.4%
59 | O=C(NCCN1CCCC1)c1ccc2c(c1)N(Cc1ccccc1)C(=O)c1ccccc1S2(=O)=O | 13.1%
60 | COc1cccc(/C=N/NC(=O)CCCc2ccc(OC)c(C)c2)c1 | 2.8%
61 | Cc1onc(-c2ccccc2)c1-c1nc2cc(Cl)ccc2c(=O)o1 | 9.04%
62 | COc1ccc(NC(=O)C2=C(C)NC(=S)NC2c2ccc(O)c(OC)c2)cc1 (stereo not shown) | 13.9%
63 | Cc1cccc(OCC(=O)O/N=C(\N)c2ccncc2)c1 | 11.2%
64 | O=C(CS(=O)(=O)c1c[nH]c2ccccc12)N1CCCc2ccccc21 | 24.2%
65 | CCCc1cc(=O)oc2c(CNc3ccc(OCC)cc3)c(O)ccc12.Cl | 8.53%
66 | COCCn1c(N)c(N(Cc2ccccc2)C(=O)C2CCCCC2)c(=O)[nH]c1=O | 8.74%
67 | COc1ccc(NC(=O)CNC(=O)c2cccs2)cc1Cl | 13.6%
68 | CC(Oc1ccc(F)cc1)C(=O)N1CCN(c2ncccn2)CC1 (stereo not shown) | 1.96%
69 | Cc1nn(C)c(Cl)c1/C=C/C(=O)O | 15.2%

Row | Structure (SMILES) | hERG current change (%, negative = inhibition) at 1uM
70 | CN(C)c1ccc(C2CC(=O)C=C(Nc3ccccc3N)C2)cc1 (stereo not shown) | 13.8%
71 | CSc1nc(C)c(Oc2ccccc2)c(=O)n1C | 10.4%
72 | O=C(CSc1nc2ccccc2o1)NC(=O)NCc1ccccc1 | -0.561%
73 | Cc1ccc(/C=C/S(=O)(=O)NCC(=O)OCC(=O)N2CC(=O)Nc3ccccc32)cc1 | 3.46%
74 | Cc1ccc(C(=O)N/C(=C/c2ccco2)C(=O)NCc2ccco2)cc1 | 7.08%
75 | CC(C)(C)c1cc(OC(=O)c2ccncc2)ccc1O | 3.13%
76 | Br.N=C1c2ccccc2CN1NC(=O)c1ccc(Br)cc1 | 7.36%
77 | CCC(C(=O)O)n1c2ccccc2c2cn[nH]c(=O)c21 (stereo not shown) | 15.7%
78 | Cc1nc(N)sc1C(=O)N1N=N1 | 21.1%
79 | Cc1cccc(CC(=O)NCC2CCCCC2)c1 | 9.8%
80 | O=C1CC2(CCN(S(=O)(=O)c3ccccc3)CC2)Oc2ccccc21 | -19.4%
81 | Cl.Nc1cc(Cl)ccc1N1CCCCCC1 | 2.95%
82 | CC12CN3CCN(C1)CC(C)(C3)C2=NO | 9.52%
83 | C(=N\Nc1nc2ccccc2[nH]1)/c1c[nH]c2ccccc12 | 0.968%
84 | COC(=O)C1=C(c2ccc(F)cc2F)C[C@@H]2CC[C@H]1N2C(=O)NCCOc1ccccc1Cl | 9.59%
85 | CS(=O)(=O)N1CCc2cc(S(=O)(=O)NCCNS(=O)(=O)c3ccc4c(c3)CCN4S(C)(=O)=O)ccc21 | 11.4%
86 | CC(C)c1csc(CN2CCC(N3CCC(C(=O)N4CCOCC4)CC3)CC2)n1 | -2.34%
87 | CCC1CCCCN1S(=O)(=O)c1ccc([N+](=O)[O-])cc1 (stereo not shown) | 0.664%
88 | Cc1cc(F)ccc1S(=O)(=O)N1CCC2(CC1)OCCN2S(=O)(=O)c1cccs1 | 2.45%
89 | CC(Sc1nncs1)C(=O)NCc1ccc2c(c1)OCO2 (stereo not shown) | 11.6%
90 | CCOc1ccc(C)cc1S(=O)(=O)N1CCCCC1 | 0.865%
91 | CS(=O)(=O)N(CC(=O)NCC1CCCO1)Cc1ccc(Cl)cc1 (stereo not shown) | 13.9%

From PMC4336329 (PLoS ONE, 2015)
